# Results from article PMC4336329 (PLoS ONE, 2015).
# The whole screen tested about 310,000 compounds, of which about 14,000 (4.5%) showed an effect of 50% or more. The effect is printed as a negative number. The list shows a part of the results.
# Target: human ether-à-go-go-related gene (hERG) potassium channel (human, UniProt Q12809)
# Assay: primary screen, population patch clamp on CHO cells stably expressing hERG
# 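Note: peak tail current of the secondary pulse compared with the same well before compound.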
# human ether-à-go-go-related gene (hERG) potassium channel, sequence (Q12809 whole entry, looked up): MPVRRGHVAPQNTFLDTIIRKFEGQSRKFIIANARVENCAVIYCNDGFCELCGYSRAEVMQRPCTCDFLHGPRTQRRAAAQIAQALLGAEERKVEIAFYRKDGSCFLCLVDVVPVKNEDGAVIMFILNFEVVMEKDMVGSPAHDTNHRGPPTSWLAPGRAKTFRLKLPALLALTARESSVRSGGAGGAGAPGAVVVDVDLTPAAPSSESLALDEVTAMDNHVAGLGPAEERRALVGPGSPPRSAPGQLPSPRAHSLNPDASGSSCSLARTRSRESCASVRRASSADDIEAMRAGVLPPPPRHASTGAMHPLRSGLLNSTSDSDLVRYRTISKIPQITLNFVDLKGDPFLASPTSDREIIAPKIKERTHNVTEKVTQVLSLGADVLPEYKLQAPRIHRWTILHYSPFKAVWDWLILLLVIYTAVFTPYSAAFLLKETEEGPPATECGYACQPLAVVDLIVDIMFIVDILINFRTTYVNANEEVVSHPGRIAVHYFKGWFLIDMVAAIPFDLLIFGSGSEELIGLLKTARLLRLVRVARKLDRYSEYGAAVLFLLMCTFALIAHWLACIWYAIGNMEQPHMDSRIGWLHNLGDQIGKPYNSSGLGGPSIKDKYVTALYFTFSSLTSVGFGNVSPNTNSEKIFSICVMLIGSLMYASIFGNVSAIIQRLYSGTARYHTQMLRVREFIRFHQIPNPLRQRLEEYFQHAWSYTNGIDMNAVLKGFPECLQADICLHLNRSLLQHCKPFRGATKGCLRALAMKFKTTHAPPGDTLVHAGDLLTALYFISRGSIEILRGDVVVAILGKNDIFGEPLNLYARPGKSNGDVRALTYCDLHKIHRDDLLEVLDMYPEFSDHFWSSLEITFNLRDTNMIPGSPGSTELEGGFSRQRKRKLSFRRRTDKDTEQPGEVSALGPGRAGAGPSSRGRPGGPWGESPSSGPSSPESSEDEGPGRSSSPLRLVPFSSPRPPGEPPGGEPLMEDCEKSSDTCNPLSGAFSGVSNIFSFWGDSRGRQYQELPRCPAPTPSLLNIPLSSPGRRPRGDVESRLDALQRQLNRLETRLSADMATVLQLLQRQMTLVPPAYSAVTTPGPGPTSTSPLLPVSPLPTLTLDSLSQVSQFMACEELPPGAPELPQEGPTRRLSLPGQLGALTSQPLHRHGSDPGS
row,Structure (SMILES),"hERG current change (%, negative = inhibition) at 10uM [%]"
1,Cc1ccc(S(=O)(=O)NC(C)c2ccccc2)cc1[N+](=O)[O-] (centres unmarked),9.16
2,O=C(CSc1ccc(Cl)cc1)NCc1ccco1,21.1
3,Cc1cccc(N(Cc2cc(=O)[nH]c3ccccc23)C(=O)CCl)c1,-10.6
4,Cc1ccc(S(=O)(=O)N(C)CC(=O)O/N=C(\N)c2ccc([N+](=O)[O-])cc2)cc1,-45.9
5,CSc1nc(N2CCN(C)CC2)c2c(c1C#N)CC(C)(C)OC2,-43.8
6,COCCn1c(SCC(=O)N2CCCCC2)nc2c([nH]c3ccccc32)c1=O,-20.5
7,CCC(=O)Nc1cc(C(C)(C)C)ccc1C(C)=O,10.5
8,COc1ccc(NC(=O)c2sccc2SCc2cccc(C(F)(F)F)c2)cc1,12.8
9,COc1ccc(C2NC(=O)c3ccccc3N2)cc1 (centres unmarked),16.1
10,C=CCSc1nccc(-c2cc(Cl)sc2Cl)n1,-15.7
11,Cc1cccc(/C=C\c2nc3ccccc3c(=O)[nH]2)c1,14.4
12,COCCNC(=O)c1c(CSc2ccc(F)cc2)noc1C(=O)NCc1ccccc1,6.56
13,Cc1ccccc1NC(=O)C1CCCN(c2nnc(N3CCCC3=O)s2)C1 (centres unmarked),-10.7
14,O=C1c2ccccc2S(=O)(=O)N1CC1CC(c2ccc(Cl)cc2)=NO1 (centres unmarked),-19.2
15,O=[N+]([O-])/C=C\c1ccc(N2CCOCC2)cc1,-45.4
16,CCc1ccc(OCC(=O)Oc2ccc([N+](=O)[O-])cc2)cc1,28.7
17,CC1(C)CC(=O)c2c(n(S(=O)(=O)c3ccccc3)c3ccc(NS(=O)(=O)c4ccccc4)cc23)C1,17.7
18,CCN1c2ccccc2N(C)C1(C)c1ccccc1 (centres unmarked),0.481
19,C=C(C)C(=O)Nc1ccc(NC(C)C)cc1,18.7
20,CCOC(=O)c1c(-c2ccc(OC)cc2)csc1/N=C/C1=C(O)CCCC1=O,-1.25
21,O=C(N=C1SC2CS(=O)(=O)CC2N1Cc1ccccc1)C1CCCCC1 (centres unmarked),13.4
22,O=C(CSc1ccc(-c2ccccc2)nn1)NC1CCCC1,0.303
23,CCCC(=O)c1c(O)[nH]c(=O)[nH]c1=O,4.71
24,Cc1nc(CNS(=O)(=O)c2cccc(F)c2)cs1,3.53
25,CCOC(=O)c1c(C)[nH]c(N=Nc2cc(C(=O)O)cc(C(=O)O)c2)c1C,-4.88
26,Cc1ccc(Nc2cc(-n3cccn3)ncn2)c(C)c1,-6.92
